Measurements: PMC4336329 (PLoS ONE, 2015)
Out of some 310,000 compounds screened, about 2,200 (0.71%) showed an effect of 50% or more. The effect is printed as a negative number. The list shows a part of the results.

molecular target: human ether-à-go-go-related gene (hERG) potassium channel (human, UniProt Q12809); assay: primary screen, population patch clamp on CHO cells stably expressing hERG
Sequence (Q12809 whole entry, looked up): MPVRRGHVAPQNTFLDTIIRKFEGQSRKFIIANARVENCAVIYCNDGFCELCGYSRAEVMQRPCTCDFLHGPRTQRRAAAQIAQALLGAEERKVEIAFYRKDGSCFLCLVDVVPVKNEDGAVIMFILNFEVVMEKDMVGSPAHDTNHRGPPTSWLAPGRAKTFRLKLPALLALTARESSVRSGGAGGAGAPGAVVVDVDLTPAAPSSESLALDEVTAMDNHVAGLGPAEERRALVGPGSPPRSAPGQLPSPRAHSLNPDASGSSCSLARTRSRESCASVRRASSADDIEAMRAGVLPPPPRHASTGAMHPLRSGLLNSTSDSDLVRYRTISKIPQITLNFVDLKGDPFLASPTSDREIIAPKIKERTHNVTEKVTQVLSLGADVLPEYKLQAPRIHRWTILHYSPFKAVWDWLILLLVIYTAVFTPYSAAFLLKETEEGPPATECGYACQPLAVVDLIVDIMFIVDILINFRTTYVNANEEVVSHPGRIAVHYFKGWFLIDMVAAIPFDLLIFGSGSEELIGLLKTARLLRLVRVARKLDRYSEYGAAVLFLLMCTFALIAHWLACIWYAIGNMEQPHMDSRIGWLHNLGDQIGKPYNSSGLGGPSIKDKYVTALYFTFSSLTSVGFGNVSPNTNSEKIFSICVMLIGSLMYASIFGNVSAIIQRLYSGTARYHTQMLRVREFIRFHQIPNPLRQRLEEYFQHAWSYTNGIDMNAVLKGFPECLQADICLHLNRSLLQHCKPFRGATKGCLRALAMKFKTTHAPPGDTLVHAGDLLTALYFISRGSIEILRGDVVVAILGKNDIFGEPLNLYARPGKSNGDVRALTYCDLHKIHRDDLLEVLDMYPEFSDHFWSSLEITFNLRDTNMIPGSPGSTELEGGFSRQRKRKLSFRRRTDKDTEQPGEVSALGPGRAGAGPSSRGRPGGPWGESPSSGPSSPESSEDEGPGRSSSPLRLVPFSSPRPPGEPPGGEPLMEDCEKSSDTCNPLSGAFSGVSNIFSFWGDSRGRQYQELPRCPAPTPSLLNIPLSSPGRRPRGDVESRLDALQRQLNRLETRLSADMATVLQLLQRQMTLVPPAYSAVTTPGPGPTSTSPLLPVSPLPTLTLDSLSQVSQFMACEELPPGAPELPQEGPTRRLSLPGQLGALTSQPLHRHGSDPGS

| SMILES | hERG current change (%, negative = inhibition) at 1uM |
| --- | --- |
| Cc1ccc(CNC(=O)[C@H](C)NC(=O)C2CCN(C(=O)[C@@H]3CCCN3C(=O)OC(C)(C)C)CC2)cc1 | 0.578% |
| COc1ccc(-c2[nH]ncc2CNC(C)Cc2ccsc2)c(F)c1 (centres unmarked) | -9.39% |
| CC(C)C(NC(=O)c1ccc(C(C)(C)C)cc1)C(=O)NCCc1ccccn1 (centres unmarked) | 5.88% |
| CC(C)c1ccc(NC(=O)NC2CCCCC2)cc1 | 9.49% |
| N#Cc1nc(-c2cccs2)oc1NCc1ccccc1Cl | 13.7% |
| CCC(C)n1c(O)c(C=Nc2cccc(C(F)(F)F)c2)c(=O)[nH]c1=S (centres unmarked) | 3.06% |
| Cc1c(Cl)c([N+](=O)[O-])nn1CC(=O)N1CCN(Cc2ccccc2)CC1 | -22.8% |
| N#C/C(=C(/O)CN1CCN(c2ccccc2F)CC1)c1nc(-c2ccccc2)cs1 | 19.2% |
| Cc1ccc(N/C(CSC(N)=O)=N/S(=O)(=O)c2ccccc2)cc1 | -3.79% |
| N#Cc1c(NC(=O)Cn2nc(C(F)(F)F)c3c2CCCC3)sc2c1CCC2 | -0.645% |
| S=C(c1cn(Cc2ccc(Br)cc2)c2ccccc12)N1CCOCC1 | 5.53% |
| CC(=O)NC(CC(=O)OCC(=O)c1c(N)n(C)c(=O)n(C)c1=O)c1ccccc1 (centres unmarked) | 7.04% |
| CSc1nnc(C)c(=O)[nH]1 | 13.1% |
| CCOC(=O)/C=C1\SCC(=O)N1CC(=O)c1ccc[nH]1 | 15.9% |
| C=CCn1c(O)c(C(C)=Nc2ccc(N(CC)CC)cc2)c(=O)[nH]c1=O | -1.29% |
| O=S(=O)(NN1CCOCC1)c1ccc(Br)cc1 | 7.45% |
| CCN(CC)C(=O)Cn1cc(S(=O)(=O)CC(=O)NCc2ccc3c(c2)OCO3)c2ccccc21 | 10.4% |
| Nc1nnc(CCS(=O)(=O)c2cc(Cl)ccc2Cl)s1 | -4.93% |
| CCOC(=O)CSc1nc(NCc2ccco2)c2ccccc2n1 | -9.13% |
| C=CCN(CC=C)Cc1c[nH]c2ccccc12 | 5.11% |
| CCCC(C(=O)NC1CCCC1)N(CC1CCCO1)C(=O)CNS(=O)(=O)c1ccccc1 (centres unmarked) | 18.1% |
| Cn1cc(-c2nnnn2-c2ccc(Cl)cc2)c(C(F)(F)F)n1 | 6.75% |

| SMILES | hERG current change (%, negative = inhibition) at 1uM |
| --- | --- |
| CC1CCC(NCCc2ccc3c(c2)OCO3)CC1.O=C(O)C(=O)O (centres unmarked) | -0.635% |
| CC(C)[C@H](NC(=O)[C@@H]1Cc2ccccc2CN1)C(=O)NC1CCCCC1 | -2.56% |
| C=CCNc1nc(N2CCOCC2)nc(N2CCOCC2)n1 | 5.34% |
| CCc1cccc2c(C=C(C#N)C#N)cn(CC(=O)N3CCCC3)c12 | 2.04% |
| O=C(Oc1cccnc1)c1ccc(Cl)c(Cl)c1 | 4.94% |
| Cc1ccccc1NC(=O)/C(=C/c1ccccc1)c1ccccc1 | 8.64% |
| Cc1ccc(S(=O)(=O)N2CCOCC2)cc1C(=O)NCc1cccs1 | 8.57% |
| CCOC(=O)[C@H]1[C@H]2COc3cc(OC)ccc3[C@@H]2N2C(=O)c3cc(OC)ccc3NC(=O)[C@@]12C | 8.59% |
| CCCc1cc(N2CCC(C(N)=O)CC2)nc(-c2ccccc2)n1 | -2.87% |
| OC(COCc1cccs1)CN1CCN(c2cccc(C(F)(F)F)c2)CC1 (centres unmarked) | -14.8% |
| Cc1ccc(C(=O)NCC(=O)OCC(=O)Nc2cc(C)c(C)cc2[N+](=O)[O-])cc1 | 12.1% |
| CC1CC(C)CN(C(=O)CSCC(=O)Nc2nc(-c3cccs3)cs2)C1 (centres unmarked) | 14% |
| COc1ccc(NC(=O)CC(=O)Nc2ccc(OC)cc2OC)c(OC)c1 | 2.93% |
| Cc1ccc(-c2nnn(CC(=O)NCCc3ccc4c(c3)OCO4)n2)o1 | 12% |
| Cc1ccccc1NC(=S)NC1CCN(Cc2ccccc2)CC1 | 3.73% |
| O=C(NCCC(=O)N1CCN(c2ncccn2)CC1)c1ccccc1 | 13.8% |
| CC(=O)OCCCN1c2ccccc2Nc2nnc(-c3ccccc3)cc21 | -5.14% |
| Cc1ccccc1C1NS(=O)(=O)N=C1N (centres unmarked) | 12.3% |
| N/C(=N\OC(=O)Oc1ccccc1)c1cccc([N+](=O)[O-])c1 | 7.58% |
| Cc1ccsc1/C=C1/C(=O)NN(c2ccccc2)C1=O | 2.94% |
| COc1ccccc1NC(=O)CNC(=O)c1ccccc1C | 9.5% |
| Cc1cc(NC(=O)CN2CCOCC2)n(-c2nc3ccccc3s2)n1 | 16% |
